This is one part of the list. Single values are uncertain, as repeats are few or missing.
Key:
Assay in all cases: cell count relative to DMSO control; melanoma cells; higher = more viable cells
Conditions in all cases: library dose: standard library concentration; 72 h
G361 = test system: G361
IPC-298 = test system: IPC-298
IST-MEL1 = test system: IST-MEL1
LB2518-MEL = test system: LB2518-MEL
LOXIMVI = test system: LOXIMVI
MEL-HO = test system: MEL-HO
MZ2-MEL = test system: MZ2-MEL
MeWo = test system: MeWo
RPMI7951 = test system: RPMI7951
RVH-421 = test system: RVH-421
SkMel28 = test system: SkMel28
SkMel2 = test system: SkMel2
SkMel30 = test system: SkMel30
SkMel5 = test system: SkMel5
UACC257 = test system: UACC257
UACC62 = test system: UACC62
WM115 = test system: WM115
WM1716 = test system: WM1716
WM1745 = test system: WM1745
WM3526 = test system: WM3526
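Note: cells treated in 1,536-well plates, then fixed and DAPI-stained, with nuclei counted from automated high-throughput microscope images.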

Row | SMILES | cell count (G361) | cell count (IPC-298) | cell count (IST-MEL1) | cell count (LB2518-MEL) | cell count (LOXIMVI) | cell count (MEL-HO) | cell count (MZ2-MEL) | cell count (MeWo) | cell count (RPMI7951) | cell count (RVH-421) | cell count (SkMel28) | cell count (SkMel2) | cell count (SkMel30) | cell count (SkMel5) | cell count (UACC257) | cell count (UACC62) | cell count (WM115) | cell count (WM1716) | cell count (WM1745) | cell count (WM3526)
1 | N#CC[C@H](C1CCCC1)n1cc(-c2ncnc3[nH]ccc23)cn1 [ruxolitinib] + C[As](C)SC[C@H](NC(=O)CC[C@H](N)C(=O)O)C(=O)NCC(=O)O [Darinaparsin] (first compound 5 µM, partner dose 2 µM) | 78.3% | 85.3% | 80.2% | 104% | 102% | 80.1% | 73.4% | 77.7% | 62.3% | 66% | 72.1% | 86.1% | 94.3% | 41% | 74% | 66.1% | 57.8% | 62.8% | 70.3% | 63.4%
2 | CC[C@]1(O)C[C@H]2CN(CCc3c([nH]c4ccccc34)[C@@](C(=O)OC)(c3cc4c(cc3OC)N(C=O)[C@H]3[C@@](O)(C(=O)OC)[C@H](OC(C)=O)[C@]5(CC)C=CCN6CC[C@]43[C@@H]65)C2)C1 [vincristine] + C[C@]12O[C@H](C[C@]1(O)CO)n1c3ccccc3c3c4c(c5c6ccccc6n2c5c31)CNC4=O [Lestaurtinib] (first compound 0.0005 µM, partner dose 0.02 µM) | 73.3% | 65.9% | 93.5% | 63.2% | 68.7% | 58.9% | 89.3% | 78.9% | 64.2% | 88.1% | 60.5% | 70.8% | 47.8% | 46.9% | 71.6% | 60% | 45.7% | 41.2% | 84.7% | 42.8%
3 | COc1cc([C@@H]2c3cc4c(cc3[C@@H](O[C@@H]3O[C@@H]5CO[C@@H](C)O[C@H]5[C@H](O)[C@H]3O)[C@H]3COC(=O)[C@H]23)OCO4)cc(OC)c1O [etoposide] + C[C@]12O[C@H](C[C@]1(O)CO)n1c3ccccc3c3c4c(c5c6ccccc6n2c5c31)CNC4=O [Lestaurtinib] (first compound 0.1 µM, partner dose 0.02 µM) | 103% | 72.5% | 99.8% | 78.1% | 156% | 87.9% | 82% | 65.5% | 88% | 106% | 63.9% | 91.4% | 75.3% | 47.8% | 85% | 53.7% | 71% | 70% | 78.3% | 77.9%
4 | C[C@@H](Oc1cc(-c2cnn(C3CCNCC3)c2)cnc1N)c1c(Cl)ccc(F)c1Cl [Crizotinib] + C[As](C)SC[C@H](NC(=O)CC[C@H](N)C(=O)O)C(=O)NCC(=O)O [Darinaparsin] (first compound 1 µM, partner dose 2 µM) | 96.3% | 112% | 102% | 89.6% | 158% | 102% | 104% | 84.8% | 87% | 80.4% | 74.2% | 103% | 96% | 69.7% | 82.1% | 85.2% | 66.1% | 75.2% | 69.3% | 65.6%
5 | C/C(O)=C(\C#N)C(=O)Nc1cc(Br)ccc1Br + O=c1cc(-c2cccc3c2Sc2ccccc2S3)oc(N2CCOCC2)c1 [KU55933] (first compound 10 µM, partner dose 5 µM) | 87.6% | 86.7% | 99.6% | 102% | 91% | 81.6% | 82.4% | 94.7% | 93.4% | 126% | 86.6% | 90.1% | 84.6% | 92.7% | 87.6% | 89.4% | 103% | 100% | 87.7% | 91%
6 | C/C(O)=C(\C#N)C(=O)Nc1cc(Br)ccc1Br + O=C1NC(=O)/C(=C/c2ccc(-c3ccc(F)cc3O)o2)S1 [AS252424] (first compound 10 µM, partner dose 5 µM) | 91.1% | 103% | 102% | 112% | 104% | 79.7% | 102% | 105% | 127% | 135% | 97% | 103% | 112% | 115% | 122% | 107% | 120% | 129% | 136% | 99.1%
7 | COc1cc2c(Oc3ccc4[nH]c(C)cc4c3F)ncnc2cc1OCCCN1CCCC1 [cediranib] + Cc1cc(SCc2sc(-c3ccc(C(F)(F)F)c(F)c3)nc2C)ccc1OCC(=O)O [GW0742] (first compound 2 µM, partner dose 10 µM) | 95.9% | 96% | 104% | 91.2% | 93.4% | 97.6% | 93.5% | 88.2% | 115% | 82% | 170% | 85.1% | 90.1% | 83.4% | 97.9% | 110% | 89.4% | 99.1% | 73% | 99.6%
8 | C[C@@H](N)c1ccc(C(=O)Nc2ccnc3[nH]ccc23)cc1 + C[As](C)SC[C@H](NC(=O)CC[C@H](N)C(=O)O)C(=O)NCC(=O)O [Darinaparsin] (first compound 2 µM, partner dose 2 µM) | 119% | 111% | 98.8% | 144% | 89.4% | 69.5% | 63.7% | 75.5% | 45.2% | 51.2% | 115% | 125% | 96.4% | 54.1% | 48.4% | 76.5% | 88.9% | 39% | 65.4% | 83.4%
9 | O=C(/C=C/c1cccnc1)NCCCCC1CCN(C(=O)c2ccccc2)CC1 + Cn1cc(C2=C(c3cn(C4CCN(Cc5ccccn5)CC4)c4ccccc34)C(=O)NC2=O)c2ccccc21 [Enzastaurin] (first compound 0.05 µM, partner dose 4 µM) | 2.24% | 28.9% | 61.5% | 60.9% | 80.7% | 41.4% | 33.2% | 86.7% | 82.3% | 33.2% | 75.4% | 8.84% | 91.7% | 86.1% | 107% | 89.5% | 101% | 80% | 65.7% | 77.9%
10 | N#Cc1c(O)c2c(-c3ccc(-c4ccccc4O)cc3)csc2[nH]c1=O + C/C(O)=C(\C#N)C(=O)Nc1cc(Br)ccc1Br [LFM-A13] (first compound 10 µM, partner dose 10 µM) | 82.6% | 93.1% | 93.6% | 98% | 103% | 91.4% | 91.7% | 84.7% | 78.3% | 95.9% | 78.4% | 87.5% | 94.7% | 95.2% | 109% | 104% | 97.3% | 94.8% | 80.9% | 75.8%
11 | CC[C@]1(O)C[C@H]2CN(CCc3c([nH]c4ccccc34)[C@@](C(=O)OC)(c3cc4c(cc3OC)N(C=O)[C@H]3[C@@](O)(C(=O)OC)[C@H](OC(C)=O)[C@]5(CC)C=CCN6CC[C@]43[C@@H]65)C2)C1 [vincristine] + N.N.[Cl][Pt][Cl] [cisplatin] (first compound 0.0005 µM, partner dose 8 µM) | 77.4% | 75.6% | 87.7% | 94.8% | 76.7% | 83.5% | 90.8% | 97.9% | 77.3% | 218% | 84% | 88.7% | 57.9% | 98.1% | 84.6% | 78.4% | 111% | 61.5% | 86.4% | 71.4%
12 | OCCn1cc(-c2cnc3nnn(Cc4ccc5ncccc5c4)c3n2)cn1 + O=C(Oc1ccc([N+](=O)[O-])cc1)N1CCC(C(O)(c2ccc3c(c2)OCO3)c2ccc3c(c2)OCO3)CC1 [JZL184] (first compound 5 µM, partner dose 5 µM) | 111% | 109% | 2.7% | 130% | 280% | 105% | 115% | 122% | 121% | 134% | 111% | 102% | 90.2% | 101% | 96.2% | 106% | 108% | 87.1% | 103% | 85.4%
13 | Cc1ccc(Nc2nccc(N(C)c3ccc4c(C)n(C)nc4c3)n2)cc1S(N)(=O)=O [Pazopanib] + N.N.[Cl][Pt][Cl] [cisplatin] (first compound 2 µM, partner dose 8 µM) | 86.6% | 73.8% | 104% | 82.5% | 85.1% | 82.7% | 87.4% | 103% | 110% | 80.1% | 98% | 113% | 70.2% | 64.2% | 81.9% | 72.8% | 83.3% | 89% | 94.8% | 75.5%
14 | COc1cc2c(Oc3ccc4[nH]c(C)cc4c3F)ncnc2cc1OCCCN1CCCC1 [cediranib] + O=C(Oc1ccc([N+](=O)[O-])cc1)N1CCC(C(O)(c2ccc3c(c2)OCO3)c2ccc3c(c2)OCO3)CC1 [JZL184] (first compound 2 µM, partner dose 5 µM) | 103% | 110% | 108% | 93.1% | 83.1% | 106% | 77% | 97.1% | 75.9% | 92.4% | 100% | 104% | 78.5% | 94.3% | 85.7% | 82.9% | 102% | 86.8% | 68.2% | 68.5%
15 | C[C@@H](N)c1ccc(C(=O)Nc2ccnc3[nH]ccc23)cc1 + N.N.[Cl][Pt][Cl] [cisplatin] (first compound 2 µM, partner dose 8 µM) | 84.1% | 93.2% | 93.8% | 93.7% | 56.3% | 60.7% | 58.7% | 89.4% | 65.4% | 40.6% | 92.3% | 93.9% | 80.1% | 67.8% | 56.1% | 91% | 85.9% | 57.6% | 51.6% | 97.7%

From the supplement of paper PMC4604168 (melanoma cell lines)
